Source: article PMC4336329 (PLoS ONE, 2015)
The campaign covered roughly 310,000 compounds. About 2,200 (0.71%) showed an effect of 50% or more. Effects have a minus sign here. This is one part of the list.

Target: human ether-à-go-go-related gene (hERG) potassium channel (human, UniProt Q12809)
Experiment: primary screen, population patch clamp on CHO cells stably expressing hERG

Sequence of human ether-à-go-go-related gene (hERG) potassium channel (Q12809 whole entry, looked up): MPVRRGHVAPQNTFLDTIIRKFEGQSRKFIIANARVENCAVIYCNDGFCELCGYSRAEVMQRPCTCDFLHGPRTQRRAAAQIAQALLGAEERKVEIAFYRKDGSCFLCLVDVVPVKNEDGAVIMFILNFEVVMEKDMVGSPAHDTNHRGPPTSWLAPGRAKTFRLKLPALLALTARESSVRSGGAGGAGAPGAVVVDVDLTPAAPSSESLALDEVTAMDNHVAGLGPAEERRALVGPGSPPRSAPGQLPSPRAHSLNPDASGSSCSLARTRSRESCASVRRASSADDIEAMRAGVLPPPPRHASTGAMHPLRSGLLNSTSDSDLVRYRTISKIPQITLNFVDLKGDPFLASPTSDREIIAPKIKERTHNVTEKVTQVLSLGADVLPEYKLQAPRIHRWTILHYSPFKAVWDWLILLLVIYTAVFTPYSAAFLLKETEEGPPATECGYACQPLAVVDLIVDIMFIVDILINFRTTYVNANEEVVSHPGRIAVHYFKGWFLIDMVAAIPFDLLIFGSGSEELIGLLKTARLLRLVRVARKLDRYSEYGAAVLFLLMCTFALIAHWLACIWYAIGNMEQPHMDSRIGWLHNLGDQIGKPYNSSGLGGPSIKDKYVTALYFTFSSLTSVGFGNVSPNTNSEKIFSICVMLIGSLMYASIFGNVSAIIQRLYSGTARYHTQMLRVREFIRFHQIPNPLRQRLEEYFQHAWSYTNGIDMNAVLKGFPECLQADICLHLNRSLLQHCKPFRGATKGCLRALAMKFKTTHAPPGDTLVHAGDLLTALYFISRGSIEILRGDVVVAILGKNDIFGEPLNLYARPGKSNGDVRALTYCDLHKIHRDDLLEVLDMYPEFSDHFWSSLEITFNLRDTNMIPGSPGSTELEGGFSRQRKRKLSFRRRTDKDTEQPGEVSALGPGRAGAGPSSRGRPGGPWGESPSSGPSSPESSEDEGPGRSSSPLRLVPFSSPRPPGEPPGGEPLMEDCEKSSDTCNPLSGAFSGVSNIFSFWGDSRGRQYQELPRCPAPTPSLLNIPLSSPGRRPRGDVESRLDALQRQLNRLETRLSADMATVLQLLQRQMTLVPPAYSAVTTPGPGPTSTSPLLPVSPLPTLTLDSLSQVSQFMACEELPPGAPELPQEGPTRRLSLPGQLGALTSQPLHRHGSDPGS

Question: `CCCC(=O)Nc1ccc(C(=O)Nc2cccc(OC)c2)cc1` was tested. Which “hERG current change (%, negative = inhibition) at 1uM” value did it give?
Answer: 5.91%

Question: How did the “hERG current change (%, negative = inhibition) at 1uM” value turn out when `C=CCCC(=O)Nc1nc(C)c(-c2csc(Nc3ccc(Cl)cc3Cl)n2)s1` was run?
Answer: 14.4%

Question: Which “hERG current change (%, negative = inhibition) at 1uM” value does the source give for `O=C(CO/N=C/c1ccccc1OC(F)F)N1CCc2ccccc21` here?
Answer: 5.34%

Question: How did the “hERG current change (%, negative = inhibition) at 1uM” value turn out when `COc1ccc(-c2ccc(OC(=O)NC3CCS(=O)(=O)C3)cc2)cc1` (centres unmarked) was run?
Answer: 13.1%

Question: Which “hERG current change (%, negative = inhibition) at 1uM” value does the source give for `CC(=O)Oc1ccc(C2(C)CC(C)(C)Oc3cc(OC(C)=O)ccc32)c(OC(C)=O)c1` (centres unmarked) here?
Answer: 16.4%

Question: For `O=C(NCc1ccc(Cl)cc1)c1ccc(Br)o1`, which “hERG current change (%, negative = inhibition) at 1uM” value is on record?
Answer: 0.112%

Question: How did the “hERG current change (%, negative = inhibition) at 1uM” value turn out when `CCN1CCN(CCNC(=O)c2ccc3c(c2)NC(=O)/C(=C\c2ccc(OC)c(OC)c2)S3)CC1` was run?
Answer: 17.4%

Question: `O=C(O)CCn1c(=S)oc2ccccc21` was tested. Which “hERG current change (%, negative = inhibition) at 1uM” value did it give?
Answer: 6.49%

Question: For `C=CCn1c(-c2ccc(OC)cc2)csc1=Nc1c(C)n(C)n(-c2ccccc2)c1=O`, which “hERG current change (%, negative = inhibition) at 1uM” value is on record?
Answer: -0.904%

Question: How did the “hERG current change (%, negative = inhibition) at 1uM” value turn out when `CC(C)c1nc(SCC(=O)NCC2CCCO2)c2c(=O)n(C)c(=O)n(C)c2n1` (centres unmarked) was run?
Answer: 9.01%

Question: With `COc1cccc(C(c2sc3ncnn3c2O)N2CCc3ccccc3C2)c1` (centres unmarked) as the compound, how does the “hERG current change (%, negative = inhibition) at 1uM” value read?
Answer: 8.06%

Question: How did the “hERG current change (%, negative = inhibition) at 1uM” value turn out when `COc1ccc(OC)c(C2CC(=O)NC(SC)=C2C#N)c1` (centres unmarked) was run?
Answer: 7.92%

Question: For `COc1ccc(-c2csc3ncnc(N4CCN(c5ccccc5)CC4)c23)cc1`, which “hERG current change (%, negative = inhibition) at 1uM” value is on record?
Answer: 11.6%

Question: `O=C(CCc1cccc(Cl)c1)N1CCCC(Nc2ccccc2)C1` (centres unmarked) was tested. Which “hERG current change (%, negative = inhibition) at 1uM” value did it give?
Answer: 16.4%

Question: For `O=C(COC(=O)CC(c1ccccc1)c1ccccc1)Nc1c(F)cccc1F`, which “hERG current change (%, negative = inhibition) at 1uM” value is on record?
Answer: -2.04%

Question: How did the “hERG current change (%, negative = inhibition) at 1uM” value turn out when `O=C(/C=C/c1ccccc1)Oc1cccc2cccnc12` was run?
Answer: 14.7%

Question: How did the “hERG current change (%, negative = inhibition) at 1uM” value turn out when `CNc1ccc2c3c(cccc13)C(=O)N(C)C2=O` was run?
Answer: 5.7%

Question: `O=C(CSc1nc2[nH]ncc2c(=O)[nH]1)Nc1cccc(Cl)c1` was tested. Which “hERG current change (%, negative = inhibition) at 1uM” value did it give?
Answer: 9.25%

Question: `CCC1C(=O)n2nc(-c3ccccc3)cc2N=C1C` (centres unmarked) was tested. Which “hERG current change (%, negative = inhibition) at 1uM” value did it give?
Answer: 3.06%

Question: With `N#Cc1c(SCC(=O)Nc2nc3ccccc3s2)sc2c(O)cc(=O)[nH]c12` as the compound, how does the “hERG current change (%, negative = inhibition) at 1uM” value read?
Answer: 19.4%

Question: `Cc1ccc(S(=O)(=O)N2CCN(C(=O)c3cc(-c4cccs4)nn3-c3ccccc3)CC2)cc1` was tested. Which “hERG current change (%, negative = inhibition) at 1uM” value did it give?
Answer: 11.7%

Question: How did the “hERG current change (%, negative = inhibition) at 1uM” value turn out when `CCOC(=O)C1CCN(C(=O)c2ccccc2NS(=O)(=O)c2ccc(C)cc2)CC1` was run?
Answer: 12.6%

Question: With `Cc1cccc(C2NC(=O)c3ccccc3O2)c1` (centres unmarked) as the compound, how does the “hERG current change (%, negative = inhibition) at 1uM” value read?
Answer: 9.89%

Question: With `O=C(Nc1nncs1)c1ccc(Br)c(S(=O)(=O)N2CCCC2)c1` as the compound, how does the “hERG current change (%, negative = inhibition) at 1uM” value read?
Answer: -1.87%

Question: How did the “hERG current change (%, negative = inhibition) at 1uM” value turn out when `CN(C)C(=O)N1CCN(C(=O)N2CCOCC2)CC1` was run?
Answer: 17.4%

Question: Which “hERG current change (%, negative = inhibition) at 1uM” value does the source give for `CN1C(=O)C(=Cc2ccccc2Oc2ccc(Cl)c(F)c2)C(=O)N(C)C1=O` here?
Answer: 8.08%

Question: `Cc1cccc(CN2CCN(CCCc3ccccc3)CC2)c1.O=C(O)C(=O)O` was tested. Which “hERG current change (%, negative = inhibition) at 1uM” value did it give?
Answer: -9.66%

Question: `COc1ccc(OC)c(NC(=O)CCC(=O)Nc2nnc(C(C)C)s2)c1` was tested. Which “hERG current change (%, negative = inhibition) at 1uM” value did it give?
Answer: 18.7%

Question: How did the “hERG current change (%, negative = inhibition) at 1uM” value turn out when `COc1cc(/C=C2\Oc3cc(O)ccc3C2=O)ccc1O` was run?
Answer: 11.8%

Question: For `CC(=O)Cc1nsc(NC(=O)c2ccc(-c3ccc(F)cc3)o2)n1`, which “hERG current change (%, negative = inhibition) at 1uM” value is on record?
Answer: 3.77%

Question: How did the “hERG current change (%, negative = inhibition) at 1uM” value turn out when `O=C(O)Cc1cn(Cc2ccc(F)cc2)c2ccccc12` was run?
Answer: 12.2%

Question: With `CC(C)[C@H](NC(=O)c1ccccc1)C(=O)OCC(=O)c1ccc(S(=O)(=O)N2CCCCC2)cc1` as the compound, how does the “hERG current change (%, negative = inhibition) at 1uM” value read?
Answer: -4.45%

Question: `FC(F)(F)c1cc(N2CCOCC2)nc(-c2ccccc2)n1` was tested. Which “hERG current change (%, negative = inhibition) at 1uM” value did it give?
Answer: 5.48%

Question: Which “hERG current change (%, negative = inhibition) at 1uM” value does the source give for `CC(NC(=O)c1ccc(CS(=O)(=O)c2cccc(C(F)(F)F)c2)o1)c1ccc2c(c1)OCCO2` (centres unmarked) here?
Answer: 10.1%

Question: With `CCCC(=O)Nc1ccc(Cl)c(NC(=O)c2ccc([N+](=O)[O-])cc2Cl)c1` as the compound, how does the “hERG current change (%, negative = inhibition) at 1uM” value read?
Answer: -1.77%

Question: For `Cc1ccc(NC(=O)NNC(=O)C2CC(c3cccs3)=NO2)cc1` (centres unmarked), which “hERG current change (%, negative = inhibition) at 1uM” value is on record?
Answer: 15.6%

Question: `CC(C)(C)c1ccc(C(=O)NCCC(=O)NCc2ccco2)cc1` was tested. Which “hERG current change (%, negative = inhibition) at 1uM” value did it give?
Answer: -11.4%

Question: For `Cc1ccc(S(=O)(=O)N2CCN(C(=O)CN3C(=O)NC4(CCCC4)C3=O)CC2)c(C)c1`, which “hERG current change (%, negative = inhibition) at 1uM” value is on record?
Answer: 4.99%

Question: For `CCOC(=O)c1ccc(-n2c(N)c(C(=O)NCc3ccco3)sc2=S)cc1`, which “hERG current change (%, negative = inhibition) at 1uM” value is on record?
Answer: 0.902%

Question: Which “hERG current change (%, negative = inhibition) at 1uM” value does the source give for `COc1cc(OC)cc(-c2nnc(NC(=O)Cc3ccc(F)cc3)o2)c1` here?
Answer: 18.6%

Question: `O=[N+]([O-])c1cc(/C=N/OCc2c(Cl)cccc2Cl)ccc1N1CCOCC1` was tested. Which “hERG current change (%, negative = inhibition) at 1uM” value did it give?
Answer: 0.632%

Question: Which “hERG current change (%, negative = inhibition) at 1uM” value does the source give for `Cc1ccc(S(=O)(=O)NC(=O)Nc2ccc(Cl)cn2)cc1` here?
Answer: 5.68%

Question: How did the “hERG current change (%, negative = inhibition) at 1uM” value turn out when `CCOC(=O)c1[nH]c2ccccc2c1NC(=O)CCN1CCN(C(=O)OCC)CC1` was run?
Answer: 4.67%

Question: For `CCOC(=O)C1(Cc2ccccc2C)CCCN(C(=O)CCc2c(C)noc2C)C1` (centres unmarked), which “hERG current change (%, negative = inhibition) at 1uM” value is on record?
Answer: -4.16%

Question: Which “hERG current change (%, negative = inhibition) at 1uM” value does the source give for `O=C(Nc1nc2ccc(SC(F)F)cc2s1)c1ccc2c(c1)S(=O)(=O)c1ccccc1C2=O` here?
Answer: -4%

Question: `O=C(c1ccc([N+](=O)[O-])cc1)N1CCSC1c1cccc(Cl)c1` (centres unmarked) was tested. Which “hERG current change (%, negative = inhibition) at 1uM” value did it give?
Answer: -14.7%

Question: `Cn1ncc2c(NCc3cccc(C(F)(F)F)c3)c(C(=O)O)cnc21` was tested. Which “hERG current change (%, negative = inhibition) at 1uM” value did it give?
Answer: 18.5%

Question: How did the “hERG current change (%, negative = inhibition) at 1uM” value turn out when `CCCc1nnc(NC(=O)OCC)s1` was run?
Answer: 13.3%

Question: With `CN1C(=O)NC(=O)C(C)(C2=CCCCC2)C1=O` (centres unmarked) as the compound, how does the “hERG current change (%, negative = inhibition) at 1uM” value read?
Answer: 13.8%

Question: How did the “hERG current change (%, negative = inhibition) at 1uM” value turn out when `CC(=O)N1CCC(C(=O)c2ccc(Cl)cc2)CC1` was run?
Answer: 10.8%

Question: For `COc1ccc(/C=C/C2=NNC(=O)CC2)cc1`, which “hERG current change (%, negative = inhibition) at 1uM” value is on record?
Answer: 9.55%

Question: How did the “hERG current change (%, negative = inhibition) at 1uM” value turn out when `CC(=O)Oc1ccc(-c2cc3ccc(OC(C)=O)cc3oc2=O)cc1` was run?
Answer: 9.98%

Question: `C/C(=N\NC(=O)COc1ccccc1-c1ccccc1)c1ccccn1` was tested. Which “hERG current change (%, negative = inhibition) at 1uM” value did it give?
Answer: 5.52%

Question: With `O=C(NCC(=O)N1CCN(S(=O)(=O)c2ccccc2)CC1)c1ccc(Br)o1` as the compound, how does the “hERG current change (%, negative = inhibition) at 1uM” value read?
Answer: 4.64%

Question: With `O=c1cc(N2CCc3ccccc3C2)[nH]c(=O)n1-c1ccc(Br)cc1` as the compound, how does the “hERG current change (%, negative = inhibition) at 1uM” value read?
Answer: -3.08%

Question: For `COC(=O)c1ccc(NC(=O)C2CCN(C(=O)c3cc(OC)c(OC)c(OC)c3)CC2)cc1`, which “hERG current change (%, negative = inhibition) at 1uM” value is on record?
Answer: 7.14%
